Measured values reported in publication PMC6919601, “Identification of Plasmodium dipeptidyl aminopeptidase allosteric inhibitors by high throughput screening” (PLoS ONE, 2019).
Out of some 110,000 compounds screened, about 230 (0.21%) showed an effect of 50% or more. This is one part of the list.

biological target: DPAP1 (Plasmodium falciparum, UniProt Q8IIJ9); experiment: primary screen, percent inhibition; read by cleavage of a fluorogenic dipeptide substrate; higher = more effect of the substance; parameters: species or system P. falciparum D10 trophozoite lysates; single well
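Note: 30 min substrate incubation versus DMSO and 10 µM JCP410 controls.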

Sequence of DPAP1 (Q8IIJ9 whole entry, looked up): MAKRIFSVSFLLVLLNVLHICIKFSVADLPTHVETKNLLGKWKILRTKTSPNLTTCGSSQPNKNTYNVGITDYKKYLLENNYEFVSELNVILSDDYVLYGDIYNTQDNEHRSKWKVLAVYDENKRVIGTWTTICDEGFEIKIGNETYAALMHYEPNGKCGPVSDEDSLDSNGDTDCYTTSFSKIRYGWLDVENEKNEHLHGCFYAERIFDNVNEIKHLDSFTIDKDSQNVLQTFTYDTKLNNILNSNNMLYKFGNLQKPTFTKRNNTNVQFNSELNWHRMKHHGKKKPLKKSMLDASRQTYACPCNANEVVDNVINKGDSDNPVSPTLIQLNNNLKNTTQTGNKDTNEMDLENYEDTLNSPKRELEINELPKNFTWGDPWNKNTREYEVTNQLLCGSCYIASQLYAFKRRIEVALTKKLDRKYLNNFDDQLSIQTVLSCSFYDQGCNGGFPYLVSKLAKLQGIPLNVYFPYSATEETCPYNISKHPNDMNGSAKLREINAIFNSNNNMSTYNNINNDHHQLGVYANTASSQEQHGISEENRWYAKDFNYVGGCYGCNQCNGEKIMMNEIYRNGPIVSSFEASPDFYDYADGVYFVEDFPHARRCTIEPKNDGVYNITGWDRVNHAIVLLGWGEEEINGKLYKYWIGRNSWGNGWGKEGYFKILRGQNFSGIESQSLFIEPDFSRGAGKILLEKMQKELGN

| SMILES | % Inhibition @ 10 uM [%] |
| --- | --- |
| CCC(C(=O)O)n1cnc2sc3c(c2c1=O)CCCC3 (centres unmarked) | -7.25 |
| COc1ccc(CCN2C(=O)c3oc4cc(C)cc(C)c4c(=O)c3C2c2cccc(O)c2)cc1OC (centres unmarked) | 6.34 |
| NC(=O)c1ccc(NC(=O)CN(Cc2ccccc2)S(=O)(=O)c2ccccc2)cc1 | 1.64 |
| CC1=C(C(=O)Nc2ccc(C)cc2)C(c2c(Cl)cccc2Cl)NC(=O)N1 (centres unmarked) | -12 |
| O=C(Nc1nc[nH]n1)C(Sc1ccccc1)c1ccccc1 (centres unmarked) | -3.13 |
| O=S(=O)(c1ccc(S(=O)(=O)N2CCN(c3ncccn3)CC2)cc1)N1CCCCCC1 | 5.35 |
| Cc1cc(C)c2c(n1)SCC(=O)N2CC(=O)NCCC(C)C | -4.15 |
| O=S(=O)(Cc1ccccc1)NCCc1ccncc1 | 2.57 |
| OCC1CCN(Cc2ccccc2)CC1 | -3.42 |
| CCN(CC)C(=O)CSc1nc2c(c(C(F)(F)F)c1C#N)CCC2 | 5.64 |
| CCOc1ccccc1N1CCN(C(=O)c2cc(Cl)ccc2OC)CC1 | 5.26 |
| Cc1ccc(N2C(=O)c3ccccc3C2=O)cc1C | 4.58 |
| O=C1CCCC2=C1C(c1cccnc1)Nc1ccc3ccccc3c12 (centres unmarked) | 4.12 |
| Cc1ccc(C)c(F)c1F | -0.778 |
| COc1ccccc1/C=C/C=c1\sc2nc(=O)c(Cc3ccccc3)nn2c1=O | -9.16 |
| O=C(CN(Cc1ccccc1)S(=O)(=O)c1ccc(Cl)cc1)NCc1ccco1 | 2.17 |
| C=CCNC(=S)Nn1c(C)nnc1-n1nc(C)cc1C | -3.41 |
| Cn1ncc2c(N(CCO)Cc3ccccc3)ncnc21 | 5.38 |
| CNC(=O)Nc1ccc(C(=O)O)cc1 | -1.97 |
| COc1ccc(CN2CCN(C(=O)Cn3ncn4cccc4c3=O)CC2)c(OC)c1OC | -7.52 |
| Clc1ccc(-c2nnn(CN3CCCCC3)n2)cc1 | -6.84 |
| COCCCNC(=O)C1c2ccccc2C(=O)N(CC(C)C)C1c1cccs1 (centres unmarked) | 1.42 |
| O=C1OC(c2ccc(F)cc2)=C/C1=C/c1ccc(O)cc1 | 6.58 |
| CN1C(=O)/C(=C/c2cccc(Br)c2)S/C1=N/c1ccc(C(=O)O)cc1 | 0.0504 |
| CCOc1ccc(-c2csc(/C(C#N)=C/c3ccccc3OC)n2)cc1 | 2.13 |
| Cc1ccc(CNC(=O)c2ccc(CNc3c(N4CCC(C)CC4)c(=O)c3=O)cc2)cc1 | 2.76 |

| SMILES | % Inhibition @ 10 uM [%] |
| --- | --- |
| COc1cc(C2C3=C(O)CC(C)(C)CC3=NC3=C2C(=O)CC(C)(C)C3)cc(Cl)c1O (centres unmarked) | -1.3 |
| COc1ccc(N(CC(=O)Nc2cccc(Br)c2)S(C)(=O)=O)cc1OC | -5.13 |
| CC(C)(C)C1CCc2c(sc(NC(=O)c3ccccc3F)c2C(=O)O)C1 (centres unmarked) | -1.4 |
| CC(C)NC(=O)c1ccc(Cn2c(SCc3ccccc3F)nc3cccnc32)cc1 | 4.67 |
| N#CC1=C(N)Oc2c(c(O)nc3ccccc23)C1c1ccc(Br)cc1 (centres unmarked) | 4.67 |
| Cc1cc(C)c(S(=O)(=O)Nc2cccc(F)c2)c(C)c1 | 2.4 |
| CSc1ccc(S(=O)(=O)N(CC(=O)NCc2ccccn2)c2ccc(C)cc2)cc1 | -4.49 |
| COc1cc2oc3ccccc3c2cc1N(CC(=O)N(C)C)S(=O)(=O)c1ccccc1 | -3.34 |
| N#CCNC(=O)[C@H](CC1CCCCC1)NC(=O)OCC1CCCCC1 | -5.21 |
| COc1ccc(S(=O)(=O)n2nc(C)c(Sc3ccccc3)c2C)cc1 | 2.43 |
| CCO/C(O)=C1\C(C)=NC2=C(C(=O)CC(c3ccccc3)C2)C1c1cccc(O)c1 (centres unmarked) | 1.67 |
| Cc1cc(C)c2nc(N3CCC(C(=O)NCCCOC(C)C)CC3)sc2c1 | 6.46 |
| Cc1cccc(NS(=O)(=O)c2ccc3ccccc3c2)n1 | 1.04 |
| CC1CC(C)CN(CCCNc2cnnc3c(Cl)cccc23)C1 (centres unmarked) | 12 |
| CCOc1ccc(CNC(=O)C2=C(C)C(=O)OC23CCCCCC3)cc1 | 2.25 |
| CC1=NN(c2ccc(Br)cc2)C(=O)CC1 | -2.51 |
| O=C(O)C(O)(c1ccccc1)C1CCCCC1 (centres unmarked) | 2.94 |
| CCC[C@H](NC(=O)C1(NC(=O)c2ccncc2)CCCCC1)C(=O)c1nc2ccccc2o1 | 0.173 |
| COc1cccc(C(=O)N2N=C3CCC(C)CC3C2(O)C(F)(F)F)c1 (centres unmarked) | -0.564 |
| CCSc1nnnn1-c1cccc(C(=O)O)c1 | -5.51 |
| CCO/C(O)=C1/C(C)=Nc2nc(SCc3ccccc3C)nn2C1c1ccc(OC)c(OC)c1 (centres unmarked) | 3.61 |
| Cc1ccc(Cn2c(=O)n(CCc3ccccc3)c(=O)c3cccnc32)cc1 | -1.66 |
| COc1ccc(CC(C)NC2CCCCC2C)cc1OC (centres unmarked) | -3.8 |
| CC1(C)C=C(/C=C/c2ccccc2)NC(=O)N1 | 1.76 |
| COC(=O)C1=C(C)NC(=O)CC1c1ccccc1OC (centres unmarked) | 0.219 |
| O=C1CC(N2CCCCCC2)C(=O)N1c1cccc(Cl)c1 (centres unmarked) | -3.91 |

| SMILES | % Inhibition @ 10 uM [%] |
| --- | --- |
| CCc1ccccc1/N=C(\N)Nc1nc(C)cc(C)n1 | 2.36 |
| Cc1cc(=O)n(C(C)C(=O)NCc2ccccc2)c2c1c(C)nn2-c1ccccc1 (centres unmarked) | 1.63 |
| CN(C)C(c1ccc(Cl)cc1)c1nnnn1C(/C=C\c1ccc(Cl)cc1Cl)C(C)(C)C (centres unmarked) | -11 |
| COc1ccccc1/C=C(\C#N)c1nc(-c2ccc(Br)cc2)cs1 | -0.591 |
| CC(C)OCc1cc(CN2CCN(C)CC2)c(O)c2ncccc12 | -0.551 |
| COc1cccc(C2=NOC(C(=O)NCC(C)C)C2)c1 (centres unmarked) | 1.42 |
| COc1ccc(N2CCN(Cc3cccc(C)c3)CC2)cc1 | 2.47 |
| COCCCNC(=O)C1CCN(S(=O)(=O)N2CCC3(CC2)OCCO3)CC1 | 5.35 |
| Cc1ccc2[nH]c(NCCCO)nc2c1 | 0.162 |
| CC(C)(C)NC(=O)Cn1c(SCc2cc3c(cc2Br)OCO3)nc2ccccc21 | -0.0108 |
| CCCCN(Cc1ccco1)S(=O)(=O)c1c[nH]c(C(=O)OC)c1 | 1.78 |
| O=C1c2cccc3cccc(c23)C(=O)N1c1nccs1 | 0.0265 |
| COC(=O)c1cc(-c2ccccc2)c2c(=O)n(C)c(=O)n(C)c2n1 | -0.551 |
| CCOc1ccc(C(=O)Nc2c(C)nc3ncnn3c2O)cc1OCC | 2 |
| CCC(C(=O)Nc1cc(C)cc(C)n1)c1ccccc1 (centres unmarked) | -2.99 |
| CCOc1ccc(C2C(C(=O)Nc3cccnc3)=C(C)Nc3nc(CCCO)nn32)cc1 (centres unmarked) | -10.2 |
| COc1ccc(CNC(=O)Cc2c(C)c3c(O)cc(C)cc3oc2=O)cc1OC | 0.895 |
| CCCOc1c(Br)cc(C=C2C(=O)NC(=O)NC2=O)cc1OCC | 25.7 |
| Fc1ccc(N2CCN(Cc3ccc(Br)s3)CC2)cc1 | -1.92 |
| CC(C)(C)OC(=O)N1CCC(c2c(C(=O)NCCc3ccsc3)cnn2-c2cccc(F)c2)CC1 | 1.75 |
| CN(Cc1ccccc1)Cc1ccc(Br)o1 | 1.08 |
| O=C(O)c1cnc2cc3c(cc2c1O)OCCO3 | -1.2 |
| CCCCSc1nc2c3cc(OC)ccc3n(C)c2c(=O)n1CCO | -1.37 |
| Cc1ccccc1N1CCN(C(=O)c2ccccc2NC(=O)C2CC=CCC2C(=O)O)CC1 (centres unmarked) | -1.61 |
| CC(C)CCNC(=O)c1ccc(-n2cnc3cccnc32)cc1 | -2.92 |
| O=C(Nc1nc2c(Cl)cccc2s1)c1ccccc1 | -2.32 |

| SMILES | % Inhibition @ 10 uM [%] |
| --- | --- |
| CC(C(=O)NCc1ccc(F)cc1)n1ccc2cc(S(=O)(=O)N3CCCC3)ccc21 (centres unmarked) | -4.38 |
| O=C(NCc1ccccc1)C1CC(c2ccccc2F)=NO1 (centres unmarked) | -3.94 |
| COc1ccc(C(=O)Nc2nc(-c3ccccc3)cs2)cc1OC | 24 |
| Cc1cc(N)nn1Cc1cccc2ccccc12 | -5.53 |
| Cc1cccc(OCC(=O)Nc2cccc(Cl)c2C)c1 | -7.28 |
| CCOc1ccccc1C(=O)NCc1ccc(C)cc1 | -5.6 |
| O=C(NCCN1CCOCC1)c1cccc(Br)c1 | 3.48 |
| COc1ccc(C2CC3=Nc4ccccc4NC(c4ccc(O)cc4)C3=C(O)C2)cc1 (centres unmarked) | 5.59 |
| CCCNC(=O)c1c(CC)c(-c2ccccc2)nc2ccccc12 | -2.26 |
| Clc1ccc(CNCCC2=CCCCC2)cc1 | 0.343 |
| C=CCOc1ccc(/C=C2\C(=N)N3N=C(S(C)(=O)=O)SC3=NC2=O)cc1OC | 5.1 |
| CCOC(=O)N1CCC(N2CCN(C)CC2)CC1 | 0.472 |
| O=C(CCC1CCCCC1)Nc1ccc(F)cc1 | -4.01 |
| CCOC(=O)N1CCN(C(=O)CNS(=O)(=O)c2ccccc2)CC1 | -5.51 |
| C=CCNC(=O)CN(c1ccccc1CC)S(=O)(=O)c1ccc(C)cc1 | 3.17 |
| CC(=O)c1ccc2c(c1)c1cc(Cl)ccc1n2C | -3.04 |
| COc1cc(/C=C/C(=O)NCCSc2c(C)[nH]c3ccccc23)cc(OC)c1OC | 1.23 |
| CCc1ccc(C(=O)NC2=NC(=O)CC(c3ccc(OC)cc3)N2)cc1 (centres unmarked) | 1.37 |
| O=C(c1ccccc1F)N1CCN(c2ccc(Cl)cc2)CC1 | -6.57 |
| O=c1c(N2CCN(Cc3ccccc3)CC2)csc2ccccc12 | 2.14 |
| Fc1cccc(CN2CCN(c3cccc(Cl)c3)CC2)c1 | -1.92 |
| Cc1nnc2sc(CCc3ccccc3)nn12 | 0.635 |
| N#Cc1c(SCCc2ccccc2)nc(N2CCOCC2)c2c1CCCC2 | 2.11 |
| CCC(C)NC(=O)C1CCCN(S(C)(=O)=O)C1 (centres unmarked) | 0.514 |
| OC(CNC1CCNCC1)c1ccc(Cl)c(Cl)c1 (centres unmarked) | 1.89 |
| CC(=O)N1CCC2(CC1)Oc1ccccc1C(=O)N2CC(=O)N1CCC(Cc2ccccc2)CC1 | -1.6 |
